Assay results taken from article PMC10796598, “Synaptobrevin2 monomers and dimers differentially engage to regulate the functional trans-SNARE assembly” (Life Science Alliance, 2024).
Blank lines part the entries; values can stand above or below the binder they belong to.

How the values were obtained:
[1] = target: the molecule itself; test: SDS-PAGE and immunoblot (dimer band); syb2 (WT or mutants) reconstituted in nanodisks (ND3S, ND5S, ND7S, ND5L, ND55L; lipid composition, cholesterol and syt1 varied); Laemmli sample buffer, 95°C 5 min; syb2 antibody; dimer-to-monomer band intensity ratio (D/M)
[2] = target: T1, t-SNARE heterodimers (comprising syntaxin-1a and SNAP-25B) (rat | mouse); test: SDS-PAGE and immunoblot of the SDS-resistant SNARE complex; syb2 nanodisks (ND5S, ND3S, ND7S, ND5L; WT or mutants) incubated with t-lipo (10:1) overnight at 4°C in 25 mM Hepes–KOH pH 7.4, 100 mM KCl, 2 mM β-mercaptoethanol; samples not boiled; syb2 or SNAP-25B antibody; control heated at 95°C for 30 min; settings: both partners purified
T1 construct: syntaxin-1a, rat cDNA; SNAP-25B, mouse cDNA; also called t-SNAREs; t-SNARE heterodimers (T); source: bacterial expression as his-tagged proteins at 37°C, purified on Ni-NTA agarose; reconstituted in liposomes (t-lipo); not shown: His tag (heterodimer expressed as his-tagged protein)

- binding result [2]: binds
B2: synaptobrevin2 (syb2) I105A (natural protein)
chain: not shown
notes: synaptobrevin2 (syb2), rat cDNA; also called ND5S(I105A); source: bacterial expression as GST-tag protein, purified on glutathione Sepharose, eluted with thrombin; reconstituted in nanodisks (ND5S)

- binding result [2]: binds
B3: synaptobrevin2 (syb2) V101A (natural protein)
chain: not shown
notes: synaptobrevin2 (syb2), rat cDNA; also called ND5S (V101A); source: bacterial expression as GST-tag protein, purified on glutathione Sepharose, eluted with thrombin; reconstituted in nanodisks (ND5S)

Continued, binder first:

B1: synaptobrevin2 (syb2) L99W (natural protein)
chain: not shown
notes: synaptobrevin2 (syb2), rat cDNA; also called ND5S (L99W); source: bacterial expression as GST-tag protein, purified on glutathione Sepharose, eluted with thrombin; reconstituted in nanodisks (ND5S)
- binding result [1]: binds

B4: synaptobrevin2 (syb2) C103W (natural protein)
chain: not shown
notes: synaptobrevin2 (syb2), rat cDNA; also called ND5S (C103W); source: bacterial expression as GST-tag protein, purified on glutathione Sepharose, eluted with thrombin; reconstituted in nanodisks (ND5S)
- binding result [1]: binds
